# Data: the supplement of paper PMC8728848
# The other results are listed elsewhere or left out.
# B1: Pbx2 (Cryptococcus neoformans) (protein)
# chain: AVSPLPSSTELVFYSQKRRRRRICSTATGSLSTPDPTRMTSDPYKRVGMRFSSVPRLLITFLSLLLLVSAAPPCVRFADYDSINQMFIDGGPGTKVLLCPNRLYRLSGPIIFTAADQEIATYGYPTGSERAVLRVEGRNTATAIQGDCRRCARVSVKNLVVDGNRKKLGRMRDFQLATGLVVLGGNEGQSIQNSWIKNPRGFTAIHIREGDKLQCSGARVEKNEIGPVGEEYDPEKDGDDPEMSPLGRPLADGVSIACRDSFIRDNTFRDNTDAAIVVYCSPGTLIHANHIFAQSLSAMAGILMVDSTPFNGDYTGTVVRSNIIDAVSRTIRVGIGIGPTVWSDDTETILTGGSVIGNGLKGRYMGYGIAAAGLKQWTIKDNWDEAKHEGRKSARCFDEPVNPDPIGLLYNRPTMEDCTVQSGFADHDFQYLVCIDGLYDKTNPPKHDPAPLAHDPSPTNAQEDNTVQQDGGDSKSKSIEQPREASDIEAEPSVEKMFSTGSEMMDDVLEHSHQRMHEVIDHLSRRIDILGAASAGKGSGDSKISEVLDPAMSSHLEKLQRKIEHLEFSLRSQIETAIQLRSAIQGWDQEMALVTDWEYDILLDVRHKLELSSYPHDQPLDPRLMRGQSYLNNEAVLVDDHSHPSLEGENLRAMSDRARLNANEEA
# Columns and labels:
# Test in all cases: glycan array binding signal (z-score within array); higher = stronger binding
# Conditions in all cases: glycan notation: IUPAC condensed, linker removed
# [1] = target: GlcNAc(b1-3)Gal(b1-4)GlcNAc(b1-3)GalNAc
# Method in brief: (§1)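 The Consortium for Functional Glycomics database supplied 3228 glycan arrays, of which those lacking an available protein sequence were dropped. The binding signal, a within-array Z-score, was averaged across arrays of the same protein sequence and across linkers. Negative scores can be read as non-binding.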
# [2] = target: GlcNAc(b1-3)Gal(b1-4)GlcNAc(b1-3)[GlcNAc(b1-3)Gal(b1-4)GlcNAc(b1-3)]GalNAc
# Method in brief: as §1
# [3] = target: GlcNAc(b1-3)Gal(b1-4)GlcNAc(b1-6)[Gal(b1-3)]GalNAc
# Method in brief: as §1
# [4] = target: GlcNAc(b1-3)Gal(b1-4)GlcNAc(b1-6)[GlcNAc(b1-3)Gal(b1-3)]GalNAc
# Method in brief: as §1
# [5] = target: GlcNAc(b1-3)Gal(b1-4)GlcNAc(b1-6)[GlcNAc(b1-3)]Gal(b1-4)GlcNAc
# Method in brief: as §1
# [6] = target: GlcNAc(b1-3)GalNAc
# Method in brief: as §1
# [7] = target: GlcNAc(b1-3)Man
# Method in brief: as §1
# [8] = target: GlcNAc(b1-3)[GlcNAc(b1-4)][GlcNAc(b1-6)]GlcNAc
# Method in brief: as §1
# [9] = target: GlcNAc(b1-3)[GlcNAc(b1-6)]Gal(b1-4)GlcNAc
# Method in brief: as §1
# [10] = target: GlcNAc(b1-3)[GlcNAc(b1-6)]GalNAc
# Method in brief: as §1
# [11] = target: GlcNAc(b1-4)Gal(b1-4)GlcNAc
# Method in brief: as §1
# [12] = target: GlcNAc(b1-4)GlcNAc
# Method in brief: as §1
# [13] = target: GlcNAc(b1-4)GlcNAc(b1-4)GlcNAc
# Method in brief: as §1
# [14] = target: GlcNAc(b1-4)GlcNAc(b1-4)GlcNAc(b1-4)GlcNAc(b1-4)GlcNAc
# Method in brief: as §1
# [15] = target: GlcNAc(b1-4)GlcNAc(b1-4)GlcNAc(b1-4)GlcNAc(b1-4)GlcNAc(b1-4)GlcNAc
# Method in brief: as §1
# [16] = target: GlcNAc(b1-4)[GlcNAc(b1-6)]GalNAc
# Method in brief: as §1
# [17] = target: GlcNAc(b1-6)Gal(b1-4)GlcNAc
# Method in brief: as §1
# [18] = target: GlcNAc(b1-6)GalNAc
# Method in brief: as §1
# [19] = target: GlcNAc6S(b1-3)Gal(b1-4)GlcNAc
# Method in brief: as §1
# [20] = target: Kdn(a2-3)Gal(b1-3)GalNAc
# Method in brief: as §1
# [21] = target: Kdn(a2-3)Gal(b1-3)GlcNAc
# Method in brief: as §1
# [22] = target: Kdn(a2-3)Gal(b1-4)Glc
# Method in brief: as §1
# [23] = target: Kdn(a2-3)Gal(b1-4)GlcNAc
# Method in brief: as §1
# [24] = target: Kdn(a2-3)Gal(b1-4)[Fuc(a1-3)]GlcNAc
# Method in brief: as §1
# [25] = target: Kdn(a2-6)Gal(b1-4)GlcNAc
# Method in brief: as §1
# [26] = target: Man(a1-2)Man(a1-2)Man(a1-3)Man
# Method in brief: as §1
# [27] = target: Man(a1-2)Man(a1-2)Man(a1-6)[Man(a1-3)]Man
# Method in brief: as §1
# [28] = target: Man(a1-2)Man(a1-3)Man
# Method in brief: as §1
# [29] = target: Man(a1-2)Man(a1-3)[Man(a1-2)Man(a1-6)]Man
# Method in brief: as §1
# [30] = target: Man(a1-2)Man(a1-3)[Man(a1-2)Man(a1-6)]Man(a1-6)[Man(a1-2)Man(a1-2)Man(a1-3)]Man
# Method in brief: as §1
binder,measurement,setting,value
B1,glycan array binding signal (z-score),[1],-0.709
same,glycan array binding signal (z-score),[2],-0.643
same,glycan array binding signal (z-score),[3],-0.249
same,glycan array binding signal (z-score),[4],-0.096
same,glycan array binding signal (z-score),[5],-0.05
same,glycan array binding signal (z-score),[6],-0.396
same,glycan array binding signal (z-score),[7],0.03
same,glycan array binding signal (z-score),[8],-0.476
same,glycan array binding signal (z-score),[9],-0.35
same,glycan array binding signal (z-score),[10],-0.416
same,glycan array binding signal (z-score),[11],-0.557
same,glycan array binding signal (z-score),[12],-0.445
same,glycan array binding signal (z-score),[13],-0.147
same,glycan array binding signal (z-score),[14],0.362
same,glycan array binding signal (z-score),[15],-0.054
same,glycan array binding signal (z-score),[16],-0.648
same,glycan array binding signal (z-score),[17],-0.551
same,glycan array binding signal (z-score),[18],-0.251
same,glycan array binding signal (z-score),[19],-0.104
same,glycan array binding signal (z-score),[20],-0.435
same,glycan array binding signal (z-score),[21],-0.211
same,glycan array binding signal (z-score),[22],0.08
same,glycan array binding signal (z-score),[23],-0.613
same,glycan array binding signal (z-score),[24],-0.169
same,glycan array binding signal (z-score),[25],-0.348
same,glycan array binding signal (z-score),[26],-0.572
same,glycan array binding signal (z-score),[27],-0.287
same,glycan array binding signal (z-score),[28],-0.508
same,glycan array binding signal (z-score),[29],-0.442
same,glycan array binding signal (z-score),[30],-0.111
